Results from the supplement of paper PMC3334620.
Whole data set: some 33,000 sequences, median “E-score (-0.5 to 0.5)” near -0.036, cut for the highest 2% near 0.37. The list shows a part of the results.

target: T1, Yer064c (UniProt P40041); assay: PBM E-score (8-mer binding enrichment) (E-score (-0.5 to 0.5)); higher = stronger / more preferred TF binding; most listed sequences are background and not binding sites; settings: protein concentration: 200 nM; construct: GST-full length
T1 sequence: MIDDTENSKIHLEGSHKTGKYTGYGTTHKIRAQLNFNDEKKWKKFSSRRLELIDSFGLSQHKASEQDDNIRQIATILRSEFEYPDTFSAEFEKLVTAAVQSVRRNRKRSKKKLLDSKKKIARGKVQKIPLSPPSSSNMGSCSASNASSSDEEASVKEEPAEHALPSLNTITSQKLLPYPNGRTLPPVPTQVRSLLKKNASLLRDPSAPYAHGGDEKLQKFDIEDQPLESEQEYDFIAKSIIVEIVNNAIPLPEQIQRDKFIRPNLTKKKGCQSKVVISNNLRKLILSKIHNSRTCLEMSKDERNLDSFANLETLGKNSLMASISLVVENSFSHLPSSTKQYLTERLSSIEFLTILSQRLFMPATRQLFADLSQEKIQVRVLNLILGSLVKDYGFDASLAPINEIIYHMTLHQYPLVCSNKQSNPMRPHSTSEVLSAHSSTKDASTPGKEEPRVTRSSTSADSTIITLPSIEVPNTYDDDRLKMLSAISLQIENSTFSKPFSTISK
Procedure, shortened: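 Universal all-10-mer Agilent arrays, fresh or stripped once, were converted to double-stranded form by primer extension. GST-tagged yeast transcription factors from PURExpress in vitro transcription/translation, full-length or DNA-binding domain only, were applied at about 100-200 nM and detected with fluorescent anti-GST. After masliner normalisation, the Universal PBM Analysis Suite scored each ungapped eight-base word together with its reverse complement by E-score.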

Sequence	PBM E-score
AAACCTCG	-0.0783
ACAGTCCT	0.174
AGTGAGAA	0.0887
AGTACCAT	0.0281
GCTCGCTA	-0.152
ATAGGAGG	-0.229
TGGAATAA	-0.0112
TTACCCAA	0.0875
ACCACACT	-0.021
CGGTATCC	-0.344
ATAAATAT	0.138
CTGAGGGC	-0.263
ATAATTGA	0.226
GACGAAGA	0.0944
CCCTCGCG	-0.215
TAGTGCGA	-0.0974
TAGCTTGA	-0.013
CGTGTAAC	0.0306
ATCCCTCC	-0.191
TCGCACCA	0.0562
GAGATTAC	0.178
CGCACGGA	-0.14
CTACACCC	-0.128
CGGTCGCC	-0.157
GCGGCCAC	-0.257

Sequence	PBM E-score
CTAGTTTC	0.0667
TCCCCGGA	-0.0933
GAACCGCC	0.0299
CAGGGGAA	-0.185
CGTTCGCC	-0.168
CGTAAGGC	-0.102
ACAGTGCC	-0.218
ACCTCGGC	-0.153
ACTTGTAG	0.053
GACTTAGC	0.292
TCCTCGAA	0.0745
GAAAATTC	-0.154
ATCCGCAC	0.00267
ATCTTGCC	-0.164
AGACGCAT	-0.109
CCATAAAG	-0.178
CACAATCA	0.284
GGATACAC	0.0108
ACTGACTG	0.306
TAATACTA	0.106
AACGGACA	-0.158
ACGGAGCC	-0.196
AGGCGTAC	-0.101
CCTAATGC	-0.108
ATCTAAAA	0.187

Sequence	PBM E-score
CTGATAAC	-0.0031
CGCACTCC	-0.217
AATTTTTC	-0.194
ACCCGAAT	-0.106
AACAAGTT	-0.0663
AGTGCAGA	-0.116
AAAACCGC	-0.129
AGTACAGC	0.099
ACTCCTCA	0.127
AGGTCGTA	0.0488
AAACTCCA	-0.104
ATACAATC	0.0424
ACGACTAG	0.359
CGCCCGCC	-0.298
ACGGGGCG	-0.00076
CACGACGC	-0.163
CATGGCGC	-0.154
CGCATCCG	-0.0541
ATCCATTA	-0.0339
AGATTTGC	-0.0937
AACGCATG	-0.0766
ATACATCG	0.0545
ATCGCCAA	-0.198
ACCATGCG	0.0519
GGGTCGCA	-0.111

Sequence	PBM E-score
ATGTCCTC	-0.173
CATTGGTA	-0.0834
GCTCTTGA	0.0196
CGCCTATC	-0.0992
CGTGTGGC	-0.144
ACTACCAG	0.0404
AGTCATGG	0.479
CTCACACC	0.0863
AGAGAATG	-0.0113
AATAAAGT	0.0508
GCTATGCC	-0.25
CCCTGCTA	-0.233
TCTATCAA	-0.0163
TGATTACA	0.41
AGCTACTG	0.0619
TAACGCCA	-0.22
ATGCCTAG	-0.105
CAACCTCC	-0.123
ATCAAGAA	0.147
AGTATCCA	-0.0187
ACCCCTAT	-0.0553
AAGATGAA	0.0255
CGACCTGC	-0.24
GTCAACGA	0.267
CGATGTGC	0.0961

Sequence	PBM E-score
CAGTGTGA	0.211
GATGGCCA	-0.214
ACTCCCAC	0.02
TGATACAA	0.141
GTGCGTTA	-0.142
ACCATTCT	-0.0647
GACAGGAA	-0.0294
CACCCTGA	0.171
CTGCGCAA	0.025
CGATCCGA	-0.151
CACCCTCC	0.0286
TAACTACA	0.113
CAAAACAC	-0.0046
ACGTAGAG	0.0083
CTGTATGA	0.146
AACGAGCT	-0.0899
AAACCTTC	-0.0157
GATTGTTA	0.218
CCAGTAGC	-0.191
CCTCAGCG	-0.182
CCCGACTC	0.389
AGTGGAAG	-0.16
ATGAACTG	0.0739
GGACTTCA	-0.00459
CGTAGCAG	-0.0495

Sequence	PBM E-score
ACTTGGCA	-0.0478
GTTCTCAA	0.131
AGCCTATG	-0.0712
GATGGACC	-0.215
CGACGCAC	-0.114
ACTTCGCG	0.0575
ACTACAAG	0.224
CTACAAGA	0.0477
CGTCTGTC	-0.138
AATACTCG	0.0739
CGCGCACG	-0.0982
GACATGAA	-0.0945
CGCTTTCA	-0.0818
CAGCTCCG	0.0233
CTCTAACC	-0.142
CTTCTAAC	-0.0284
TAAGCCTA	-0.0345
AACTATAA	0.0773
CATGTAGC	-0.048
TCTTTGCA	0.08
AAGCGTGC	-0.222
GCATACGA	-0.159
ATGACCCG	-0.0995
CCGCAGAA	-0.147
CGTTTTCC	-0.286

Sequence	PBM E-score
CTCAGGTC	-0.0443
CATGACCC	0.0512
CACTTGCC	-0.214
GCCACCAC	-0.228
CTCAACCC	0.203
ATTTATGG	0.0947
GGAACAGA	-0.0798
CTGCCTAA	-0.0491
GGCGATGA	-0.0497
CGGCCAGC	-0.256
AGAGCTCT	-0.292
AGCCCGAG	-0.00679
CCAAGCCG	-0.282
ACCAGCAC	-0.237
ATCGTCTA	0.00108
CGACGTGC	-0.248
CGAACTTA	-0.157
CCTCGAAA	-0.00031
AAGGAGTA	0.0121
AATTGTCG	-0.178
TATGGCCA	-0.278
CTTAACTC	0.164
AGTCGACA	0.27
AAGGTATA	0.0676
ATCCGCGA	0.0854

Sequence	PBM E-score
TAAGCGCA	0.0539
ACCAATGG	-0.129
CCCCAGAA	-0.176
CACCCACC	0.122
ACAGTCAC	0.405
GGCATACA	-0.226
CCCAGAGC	-0.123
TAAGTTGA	0.222
CAGGCGTA	-0.0189
ACTTCCCT	-0.0245
GAGTGCCC	-0.234
GGTTCACA	0.00505
CTATCGAG	0.0679
GGTCACCA	0.036
CCGTACTC	0.0902
GCCGCCTA	-0.157
CTGTGTAC	0.103
ACCAACAT	-0.00157
AAGCTAAT	0.156
CGTGGGGC	-0.258
AGTTATCG	0.0867
CCAGCGAA	-0.268
CAGATCCA	-0.13
CAGGTGAA	-0.0165
CCAAAACC	-0.0619

Sequence	PBM E-score
AGCCAGCC	0.0353
GTCAACAA	0.105
ACTGTCTG	0.0914
AAATAGTA	-0.0273
CGGGGGTA	-0.271
AGTGTGCC	-0.235
CCCGAAAA	-0.148
CACGCTTA	0.0101
AGGCTAAT	0.109
AATGCTGT	0.018
GCCTGCCA	-0.285
CATGTACC	-0.137
AAACCAAA	-0.00153
ACTGTAAA	0.102
TGACCGAA	-0.0108
CATAAGAC	0.159
ATGGGTAG	0.129
ACCCGGAG	0.101
GAACTTGC	-0.215
CTTCGATA	-0.049
GAGGATTA	0.109
GCCGACAC	-0.146
GGCAGTAA	0.0188
GCAGCACA	-0.0653
ATCGACTC	0.304

Sequence	PBM E-score
AGTCATCA	0.485
AGCCCAAC	-0.21
CGTCGCAG	-0.031
ACGTAACC	-0.0806
GGATGGTA	-0.0582
GGACATTA	-0.089
CCCGGTGA	0.134
CAATGATG	-0.0856
ACTGACCG	-0.0617
CATCTTGA	0.15
CGTGACAA	-0.253
CTTCCCGA	-0.0646
GGAGATAC	-0.119
ATCTTGAG	0.0721
CAGGGCGA	-0.118
GGGACGAA	-0.244
AACGCATT	0.0327
CCCCTCCC	-0.268
AATCAAGA	0.235
TAAAAGTA	0.0688
ATGGCCCA	-0.173
GATTTCAA	0.112
TGATAAAA	0.0422
ATGATTAG	0.438
GGCTACCA	-0.00666

Sequence	PBM E-score
AGCCACCT	0.154
ATAGGACG	-0.178
CGTTACGA	-0.0217
GCATGCGA	-0.147
GCCGTGAC	0.293
GGTTCTGA	0.159
CGGAGCAA	-0.244
CTCTTACA	-0.0635
CGGATCTA	-0.0634
ATGTAAAC	-0.0389
ACACGCCA	-0.0841
ACTCCCGC	0.0508
GTTCGCCA	-0.0839
AAAGGACT	0.264
GCCCGCAA	0.0354
CATCAAAA	0.153
ACGTTTCG	-0.064
ACAGATAT	0.0215
AAACTAAG	0.175
ATCATCAT	0.332
GAATAGGA	0.016
ACTAAAAC	0.201
TACGAAAA	0.0872
AGCTGTCC	-0.216
GGGTGTCA	0.0522

Sequence	PBM E-score
AGAGTTTG	-0.113
TACGCCTA	0.0847
AAACCTGC	-0.202
CGTCACCA	-0.0242
CGGCAACA	-0.101
AATAATGC	0.024
CCCCGACC	-0.258
TAGAGCGA	0.112
CGGGACGA	-0.0778
ACTTAAGC	0.1
AAAAAGAG	0.0369
AAGTCCAG	-0.0247
AGACCGAG	-0.0195
GCGAATAA	-0.11
GGAATGGA	-0.211
CCAGGGCC	-0.173
ACGATAAG	-0.117
AATTCTAC	-0.0155
TAATCTCA	0.21
GCTTGCAA	-0.0673
ACGGGCTA	-0.288
CTTCTGAA	-0.0666
CCGCGACG	-0.14
ATAGGTAG	0.0647
AAGTTAAA	-0.00583

Sequence	PBM E-score
ACATGGCG	-0.156
CGGCATTC	-0.181
GGACAAAA	-0.153
GGGGTATA	-0.16
ATGCACCC	-0.0692
AGCCCACA	-0.143
ACATGGAC	0.0899
CACTCGAC	-0.0515
AAAGGGCC	-0.189
CTGGGAAG	0.0347
ATTGGCGC	-0.244
TCATTTCA	0.274
CAAATGTC	-0.23
CTGAGAAC	0.0878
AACCGCAA	0.0487
ACACAGTC	0.285
CCGTCTAG	-0.0627
CCAAAGCC	-0.177
GTCTCTAA	0.0492
ACTACATA	0.209
CTTTCTCC	-0.157
CTAATCAC	0.393
CTGATGCC	-0.135
AAGGACTG	0.184
GCCCTAAC	-0.182

Sequence	PBM E-score
GTTCCCGA	-0.0537
TAGCTATA	-0.115
CTCATGGC	0.221
ACGTGCGA	-0.198
CTCACCAA	0.183
ATGGAATC	0.249
CAGCACCC	-0.0897
GCTGGCAC	-0.175
ATCAAGAG	0.175
ATTTGTCC	0.00587
ATTGGACC	-0.188
ATGAATGG	-0.00961
AGGCTCAA	0.111
CGCAATTC	-0.153
ACGCGTAA	-0.00741
CAAAGCGC	-0.133
ACCCGGAT	-0.167
ACACGGCG	-0.00051
CGGACCAG	-0.149
